From PubChem BioAssay AID1159614 (National Center for Advancing Translational Sciences (NCATS), 2016)
The campaign covered roughly 45,000 compounds. About 65 (0.1%) were called active. Calls follow the shape of the dose curve; as a rule, active = well fitted activation curve with a large enough effect; inconclusive = small, poorly fitted or top-dose-only effect; inactive = no such curve, though single readings can be large or run the other way. The list shows a part of the results.

Molecular target: Galactocerebrosidase (Homo sapiens) (UniProt P54803)
Assay: A Novel Cell-Based Assay to Identify Small Molecules for B -Galactocerebrosidase; also: 0% is about no effect; nearly all actives have a fitted effect of over 65% in size
Conditions: 145M-Twi-hGALC-G270D cells (Twitcher mouse brain line with human GALC G270D), HMU-beta-Gal fluorescence, 48 h; series mostly up to 57.5 µM; activation: at the top concentration
Method in brief: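 Live 145M-Twi cells (Twitcher mouse brain-derived, GALC-null) stably expressing human GALC-G270D, with a wild-type GALC line, were compound-treated. Residual GALC activity was then read as fluorescence from 0.1 mM final HMU-β-gal at pH 5.2; higher signal means activation.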

Chain of UniProt P54803 (P54803 whole entry, looked up): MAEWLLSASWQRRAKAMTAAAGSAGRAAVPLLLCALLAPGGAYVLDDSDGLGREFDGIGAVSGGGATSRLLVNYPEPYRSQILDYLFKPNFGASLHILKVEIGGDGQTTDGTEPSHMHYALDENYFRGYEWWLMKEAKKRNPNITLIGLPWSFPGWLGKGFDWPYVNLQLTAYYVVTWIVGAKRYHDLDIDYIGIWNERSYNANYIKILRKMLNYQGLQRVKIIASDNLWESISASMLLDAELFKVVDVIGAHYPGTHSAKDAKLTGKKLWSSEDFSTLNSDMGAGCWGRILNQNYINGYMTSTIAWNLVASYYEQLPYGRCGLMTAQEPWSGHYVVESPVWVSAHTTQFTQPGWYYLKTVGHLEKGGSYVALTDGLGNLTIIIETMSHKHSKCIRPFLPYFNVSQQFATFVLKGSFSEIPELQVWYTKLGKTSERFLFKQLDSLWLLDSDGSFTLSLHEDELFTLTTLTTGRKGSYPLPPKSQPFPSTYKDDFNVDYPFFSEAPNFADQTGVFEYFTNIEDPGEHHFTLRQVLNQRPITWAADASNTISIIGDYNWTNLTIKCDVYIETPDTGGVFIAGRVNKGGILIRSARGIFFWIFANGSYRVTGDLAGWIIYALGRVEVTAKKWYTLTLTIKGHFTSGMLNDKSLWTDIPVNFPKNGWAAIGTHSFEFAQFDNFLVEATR

activation, inactive:
CC1=NN(c2ccccc2)C(=O)C1 -12.5%
Cc1nn(-c2nc(-c3ccc(F)cc3)cc(C(F)(F)F)n2)c(C)c1Cl -25.2%
Cn1ccc2c(OCC(=O)NCc3ccccc3Cl)cccc2c1=O -9.52%
CC(=O)N1CCC2(CC1)OC(=O)C(C)=C2C(=O)NCc1ccc(Cl)cc1 -2.37%
CCc1ccc(CNC(=O)c2ccc3nc(C(C)C)oc3c2)cc1 -13.3%
CCCc1ccc(OCC(=O)N2CCN(C(=O)COc3ccc(CCC)cc3OC)CC2)c(OC)c1 -7.92%
CCc1ccc(NC(=O)C(=O)NCC(c2cccnc2)N2CCN(C)CC2)cc1 (stereo not given) -7.98%
COc1ccc(OC(C)c2nc3ccccc3[nH]2)cc1 (stereo not given) -26.2%
O=C(Nc1ccc2oc(-c3cccnc3)nc2c1)c1ccc(-c2ccccc2)o1 -14%
O=c1cc(-c2ccc(F)cc2)nc(SCc2nc(-c3ccccc3Cl)no2)[nH]1 -11%
COC(=O)c1ccc(Cl)cc1NC(=O)N(C)CCc1c(C)nn(C)c1C -17.3%
CCOc1ccc(NC(=O)C(=O)NCCc2csc3nc(-c4ccccc4F)nn23)cc1 -8.32%
CCOC(=O)c1ccc(NC(=O)c2csc3c2CCCCC3)cc1 -31.5%
COc1cc(NC(=O)C(CC(C)C)NS(=O)(=O)c2ccc3c(c2)oc(=O)n3C)c(C(=O)O)cc1OC (stereo not given) -5.06%
CCOc1ccc(NC(=O)Cn2cc(C(=O)c3ccc(C)c(C)c3)c(=O)c3cc(OC)c(OC)cc32)cc1 2.86%
O=C(COc1ccccc1Cl)Nc1ccc(Cl)c(-c2nc3ccccc3o2)c1 -7.39%
O=C(O)c1ccc2nc(-c3cc4cc(F)ccc4oc3=O)[nH]c2c1 -12.5%
Cc1cccc(N2CCN(C(=O)c3cc4c(=O)n(C)c5ccccc5c4s3)CC2)c1C -8.34%
COc1ccc(CCn2c3c(c(=O)[nH]c2=O)C(NC(=O)c2ccccc2OC)(C(F)(F)F)C(=O)N3)cc1OC (stereo not given) -7.79%
COc1cc(C(=O)Nc2ccc(NC(=O)c3ccc(Br)cc3)cc2)cc(OC)c1OC -3.34%
Cc1ccc(-n2ccnc(NCCc3ccc(S(N)(=O)=O)cc3)c2=O)cc1C 1.41%
Cc1oc(-c2cccc(Cl)c2)nc1CSc1nc2ncccc2[nH]1 -0.932%
CCC1CCCCN1C(=O)CSc1nc2c([nH]c3ccccc32)c(=O)n1-c1cccc(OC)c1 (stereo not given) -27.7%
CCOc1ccc(C(=O)Nc2ccc(S(=O)(=O)N3CCCCC3c3cccnc3)cc2)cc1 (stereo not given) -19.2%
CCc1cccc(C)c1NC(=O)Cn1c(=O)cc(C(F)(F)F)c2c(C)nn(C)c21 -8.93%
Cc1cccc(N2CCN(c3nc4ccccc4c(=O)n3-c3ccc(Cl)cc3)CC2)c1C -12.8%
Cc1ccc(C)c(S(=O)(=O)NCC(c2ccco2)S(=O)(=O)c2ccc(F)cc2)c1 (stereo not given) -28.3%
CCOc1ccc(CCNC(=O)c2cnc3sc(N4CCOCC4)nn3c2=O)cc1 -8.94%
COc1ccc(Cn2ccnc2SCC(=O)NCc2ccccc2)cc1 -15.5%
CCC1CCCCN1C(=O)c1nn(-c2ccc(C)cc2)c(=O)c2c1c1ccccc1n2C (stereo not given) -21.1%
COc1ccccc1-c1ccnc2[nH]n(-c3ccccc3)c(=O)c12 -16.7%
O=C(NCc1cccs1)C1CCN(C(=O)N2CCOc3ccccc32)CC1 -11.7%
O=C(CSc1nc2c([nH]c3ccccc32)c(=O)n1-c1ccccc1)c1ccccc1 -3.67%
O=C(Nc1c(-c2ccccc2)nc2ccccn12)c1ccc(Br)cc1 -7.76%
Cc1ccc(N2CCN(C(=O)c3ccc4c(Cl)c5c(nc4c3)CCCC5)CC2)c(C)c1 -5.07%
O=C(Nc1ccc(F)cc1F)c1c2c(nc3ccccc13)C(=O)N(C1CCCCC1)C2 -15.3%
Cc1noc(C)c1S(=O)(=O)N(CC(=O)NCc1ccccc1Cl)c1ccc(C(C)C)cc1 -14.6%
COc1ccc(-c2nn(CC(=O)Nc3ccccc3F)c3c2cnc2ccc(F)cc23)cc1 -19.6%
COc1ccc(C2C(=O)N(C3CCCCC3)CC(=O)N2Cc2ccccc2Cl)cc1OC (stereo not given) -7.68%
CCOC(=O)c1cc(OC(=O)c2ccc(Cl)cc2)n(-c2ccccc2)n1 -12%
Cc1ccc(N(CC(=O)N2CCN(c3ccc(Cl)cc3)CC2)S(=O)(=O)c2c(C)noc2C)cc1 -35.9%
COc1ccc(CNC(=O)Cn2ncn3nc(-c4cccs4)cc3c2=O)cc1 -27.8%
CCN(CC)CCNC(=O)c1cc(Cl)c(N)cc1OC -12.8%
Cc1ccc(-c2nc(S(=O)(=O)c3ccc(C)cc3)c(N3CCN(c4ccccc4)CC3)o2)cc1 10.8%
Cc1ccc(C)c(N2CCN(CCCNC(=O)Cn3ncc4c([nH]c5ccccc54)c3=O)CC2)c1 -6.28%
COc1ccc(N2CCN(S(=O)(=O)CCNC(=O)c3ccc(C(F)(F)F)cc3)CC2)cc1 -16.5%
CCc1ccc(-n2nc(C)c3c(C(=O)NCCc4ccc(OC)c(OC)c4)cc(C)nc32)cc1 -0.501%
CCCC(=O)O[C@]1(C(=O)CCl)[C@@H](C)C[C@H]2[C@@H]3CCC4=CC(=O)C=C[C@]4(C)[C@@]3(F)C(=O)C[C@@]21C -19.1%
CCCCCn1c(=O)[nH]c2cc(C(=O)NCc3ccc(OC)cc3)ccc2c1=O -8.51%
CCOC(=O)c1ccc(NC(=O)CCS(=O)(=O)c2ccc3c(c2)oc(=O)n3C)cc1 -9.4%
CCOc1ccc2ccccc2c1C(=O)N[C@@H]1C(=O)N2[C@@H]1SC(C)(C)[C@@H]2C(=O)O -17.9%
Cc1ccc(Cl)cc1N1CCN(S(=O)(=O)c2ccc3[nH]c4c(c3c2)CCCC4)CC1 -13.5%
COc1ccccc1NC(=O)CN1C(=O)c2cccc3cccc1c23 -6.89%
Cc1cccc(N2CCN(C(=O)C3CCN(S(=O)(=O)c4cn(C)cn4)CC3)CC2)c1C -9.14%
COc1ccccc1N(CC(=O)Nc1ccccc1F)S(C)(=O)=O -21.9%
Cc1cccc(CN2C(=O)CC(c3ccc(Cl)cc3)c3c(C)nn(-c4nc(C)cc(C)n4)c32)c1 (stereo not given) -9.37%
CCCCN(CCCC)CCNC(=O)CN1C(=O)CSc2ccc(S(=O)(=O)N3CCCCC3)cc21 -13.1%
CCCNc1nc(NCc2ccccc2OC)c2cnn(C)c2n1 -8.9%
CCN(CCCNC(=O)c1cc2c(=O)[nH]c3ccc(C)cc3c2s1)c1ccc(C)cc1 -23.9%
COc1ccc(C2NC(=O)c3c(sc4c3CCN(C)C4)N2)cc1O (stereo not given) -8.69%
